PubChem BioAssay AID588579 (National Center for Advancing Translational Sciences (NCATS), 2011)
In all, about 400,000 compounds went through this assay and about 2,200 (0.55%) were called active. The shares of active, inactive and inconclusive entries below differ from those in the screen. Calls come from the whole dose curve; as a rule, active = well fitted inhibition curve with a large enough effect; inconclusive = small, poorly fitted or top-dose-only effect, or another doubt; inactive = no such curve, though single readings can be large or run the other way. Potencies of inconclusive entries are doubtful fits and often do not repeat.

biological target: DNA polymerase kappa (Homo sapiens) (UniProt Q9UBT6); experiment: qHTS for Inhibitors of Polymerase Kappa; settings: purified Pol kappa, fluorescent DNA synthesis assay, 10 min; series mostly up to 107 µM
Summary of the method: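 Pol kappa 10 nM + cpd, 15 min RT; start w/ substrate 50 nM final; fluorescence kinetic read, 0 and 10 min. Neg ctrl: buffer, no enzyme.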
% is set by controls: 0 for no effect and ±100 for the full control effect; potency is the fitted concentration of half-maximal effect; tags give direction and shape of the fitted curve.

UniProt Q9UBT6, sequence (Q9UBT6 whole entry, looked up): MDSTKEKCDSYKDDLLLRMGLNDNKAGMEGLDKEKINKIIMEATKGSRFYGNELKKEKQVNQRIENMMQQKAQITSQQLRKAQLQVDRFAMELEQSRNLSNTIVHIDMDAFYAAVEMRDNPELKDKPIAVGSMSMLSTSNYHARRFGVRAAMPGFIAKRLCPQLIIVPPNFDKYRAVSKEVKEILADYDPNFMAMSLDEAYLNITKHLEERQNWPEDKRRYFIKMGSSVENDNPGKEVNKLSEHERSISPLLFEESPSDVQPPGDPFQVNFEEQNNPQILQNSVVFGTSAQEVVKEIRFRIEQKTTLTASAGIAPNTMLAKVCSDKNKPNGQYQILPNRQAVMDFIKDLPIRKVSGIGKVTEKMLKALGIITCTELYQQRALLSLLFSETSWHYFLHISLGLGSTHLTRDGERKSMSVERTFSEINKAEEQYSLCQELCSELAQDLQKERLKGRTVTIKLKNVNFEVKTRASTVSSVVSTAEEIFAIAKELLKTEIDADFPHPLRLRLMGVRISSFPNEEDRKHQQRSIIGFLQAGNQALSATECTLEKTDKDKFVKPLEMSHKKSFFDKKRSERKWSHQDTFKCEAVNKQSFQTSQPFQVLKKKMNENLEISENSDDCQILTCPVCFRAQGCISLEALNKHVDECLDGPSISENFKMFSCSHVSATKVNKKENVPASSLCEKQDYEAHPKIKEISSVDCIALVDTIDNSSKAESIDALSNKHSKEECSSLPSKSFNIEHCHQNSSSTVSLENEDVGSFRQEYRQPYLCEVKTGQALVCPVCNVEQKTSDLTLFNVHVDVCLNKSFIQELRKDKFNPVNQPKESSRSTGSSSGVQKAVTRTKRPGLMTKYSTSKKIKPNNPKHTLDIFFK

| Compound | Potency | activity, negative = inhibition |
| --- | --- | --- |
| CC1(C)C2CCC1(C)C(NC(=O)COC(=O)c1ccc(S(C)(=O)=O)c([N+](=O)[O-])c1)C2 (configuration not stated) | inactive | – |
| NNc1ccc(Cl)c(C(=O)O)c1 | inactive | – |
| Cc1ccc(-c2nn3c(C)nnc3s2)cc1NC(=O)c1ccc(-c2ccc(Cl)cc2Cl)o1 | inconclusive: 100 µM [inhibitor, single point] | – |
| Cc1ccccc1NC(=O)CN1C(=O)S/C(=C\c2ccc(-c3cc(C(=O)O)ccc3C)o2)C1=O | inconclusive: 35.5 µM [inhibitor, full curve] | – |
| O=C1C=C(c2ccc(C(=O)O)c(Cl)c2)C[C@@H](c2ccc3c(c2)OCO3)C1 | inconclusive: 100 µM [inhibitor, single point] | – |
| COc1cc(OC)c(OC)cc1CNc1sc2c(c1C(=O)Nc1ccccc1OC)CCC2 | inactive | – |
| Cn1c(=O)c(-c2cccs2)nc2cnc(N3CCNCC3)nc21 | inconclusive: 39.8 µM [inhibitor, single point] | – |
| Cc1ccnc(NS(=O)(=O)c2ccc(NS(=O)(=O)c3cccs3)cc2)n1 | inconclusive: 89.1 µM [inhibitor, single point] | – |
| O=C(Nc1ccc(N2CCOCC2)c(S(=O)(=O)Nc2ccc(Cl)cc2)c1)c1ccc(=O)[nH]n1 | inconclusive: 56.2 µM [inhibitor, partial curve, poor fit] | – |
| CC(C)c1ccc(NC(=O)COC(=O)[C@@H]2CCCN2C(=O)c2cccs2)cc1 | inactive | – |
| O=C1c2cccc3cc([N+](=O)[O-])cc(c23)C(=O)N1/N=C/c1ccc(O)cc1O | inconclusive: 89.1 µM [inhibitor, single point] | – |
| CCC(C)c1ccc(S(=O)(=O)N2CCN(CC(O)COCC3CCCO3)CC2)cc1 (configuration not stated) | inconclusive: 89.1 µM [inhibitor, single point] | – |
| COc1ccc(N2Cc3cccc(C(=O)Nc4ccc(F)cc4)c3C2=O)cc1 | inconclusive: 100 µM [inhibitor, single point] | – |
| O=C(O)C=Cc1ccc(Cn2ccnc2)cc1 | – | inactive: -11.4% [at 19.4 µM] |
| O=C(C=C1SCCS1)/C=C/c1ccco1 | inconclusive: 89.1 µM [inhibitor, single point] | – |
| COc1ccc2occ(CC(=O)Nc3ccc(S(=O)(=O)Nc4nc(C)cc(C)n4)cc3)c2c1 | inconclusive: 89.1 µM [inhibitor, single point] | – |
| C=CCn1c(SCC(=O)N2CCCC2)nc2scc(-c3cccs3)c2c1=O | inactive | – |
| Cc1nnc(N2CCC(C(=O)NCCc3ccccc3)CC2)c2nn(-c3ccc(Cl)cc3)c(C)c12 | inactive | – |
| CN1CC[C@]23c4ccccc4N[C@H]1[C@]21CCN(C)[C@H]3Nc2ccccc21 | inactive | – |
| N=C1SC(c2ccccc2)C(=O)N1c1ncc(Cc2ccccc2Cl)s1 (configuration not stated) | inconclusive: 89.1 µM [inhibitor, single point] | – |
| CNc1ccc(Br)cc(C(=O)/C=C/c2cccc(OC)c2)c1=O | inconclusive: 79.4 µM [inhibitor, partial curve, poor fit] | – |
| O=C(N1CCOCC1)N1CCN(c2ccccc2F)CC1 | inactive | – |
| Cc1noc(C)c1S(=O)(=O)N1CCCC(C(=O)c2cccc(OC(C)C)c2)C1 (configuration not stated) | inconclusive: 89.1 µM [inhibitor, single point] | – |

| Compound | Potency | activity, negative = inhibition |
| --- | --- | --- |
| CCN(CC)CC1CCN(c2ncc3ncnc(Nc4ccc(F)c(Cl)c4)c3n2)CC1 | inconclusive: 39.8 µM [inhibitor, partial curve, poor fit] | – |
| COc1ccc(CCN(C)CCC(=O)Nc2cc(C)ccc2C)cc1OC | inactive | – |
| CC1CCCCN1Cc1c(O)ccc2c(=O)c(-c3ccccc3Cl)c(C(F)(F)F)oc12 (configuration not stated) | inactive | – |
| CCOC(=O)/C(C#N)=C/C=C1\C=Cc2ccccc2N1CC | inactive | – |
| O=C(Nc1cccc(-c2cn3cccnc3n2)c1)c1ccc(Br)o1 | inconclusive: 89.1 µM [inhibitor, single point] | – |
| CC(C)c1ccc(/C=C2\C(=N)N3N=C(CC(=O)N4CCCCC4)SC3=NC2=O)cc1 | inconclusive: 56.2 µM [inhibitor, partial curve, poor fit] | – |
| Cc1ccc(C)c(NC(=O)C2CCN(S(=O)(=O)c3c(C)noc3/C=C/c3cccs3)CC2)c1 | inactive | – |
| Cn1c(/C(C#N)=C/c2ccccc2Br)nc2ccccc21 | inconclusive: 89.1 µM [inhibitor, single point] | – |
| Cc1c(NC(=O)C(C)OC(=O)c2ccc([N+](=O)[O-])s2)c(=O)n(-c2ccccc2)n1C (configuration not stated) | inconclusive: 79.4 µM [inhibitor, partial curve] | – |
| O=C(Nc1ccc(Oc2ccc(Cl)cc2)c(Cl)c1)c1cc(I)cc(I)c1O | inactive | – |
| Cc1ccc(-c2c3c(=O)n(C)c(=O)n(C)c3c3n2-c2ccccc2NC3c2ccc(C)cc2O)cc1 (configuration not stated) | inconclusive: 79.4 µM [inhibitor, partial curve] | – |
| CC1(OC(=O)c2ccco2)C(=O)C=C2C=C(C3CC3)OC=C2C1=O (configuration not stated) | active: 79.4 µM | – |
| Cc1ccc2nc(-c3ccc(N4C(=NC(=O)CCC(=O)O)SC5CS(=O)(=O)CC54)cc3)sc2c1 (configuration not stated) | inconclusive: 79.4 µM [inhibitor, single point] | – |
| COc1ccc(/C=C/c2ccc3ccccc3[n+]2C)cc1OC | inconclusive: 89.1 µM [inhibitor, partial curve, poor fit] | – |
| O=C(NCc1ccccc1Cl)c1ccccc1NC(=O)c1nsc2ccccc12 | inactive | – |
| COCCCNC(=O)c1cc2c(-c3cccc(OC)c3)nn(C)c2s1 | inactive | – |
| CN(C)c1ccc(/C=C/c2sc3ccccc3[n+]2C)cc1 | inconclusive: 56.2 µM [inhibitor, partial curve, poor fit] | – |
| Oc1ccc2c(c1)OC(c1ccc(O)c(O)c1)C(O)C2 (configuration not stated) | active: 10 µM | – |
| O=C(NC1CCCCC1)N1CCC(c2nc(-c3ccc(S(=O)(=O)N4CCCC4)cc3)no2)CC1 | inactive | – |
| C/C(=N\NC(=O)c1ccc(NS(=O)(=O)c2cccs2)cc1)c1ccccn1 | inconclusive: 100 µM [inhibitor, partial curve, poor fit] | – |
| COc1cc(OC)c2c(-c3ccccc3)cc(=O)oc2c1C(CC(=O)N1CCCC1)c1ccc2c(c1)OCO2 (configuration not stated) | inconclusive: 79.4 µM [inhibitor, partial curve] | – |
| COc1cccc2sc(Nc3nc4ccc(NC(C)=O)cc4s3)nc12 | active: 44.7 µM | – |
| Oc1ccc(C[C@H]2CNCCN2CCc2cc(C(F)(F)F)cc(C(F)(F)F)c2)cc1 | inconclusive: 89.1 µM [inhibitor, single point] | – |

| Compound | Potency | activity, negative = inhibition |
| --- | --- | --- |
| Cc1ccc(C(=O)N/C(=C/c2ccco2)C(=O)NCc2ccco2)cc1 | inconclusive: 100 µM [inhibitor, single point] | – |
| CS(=O)(=O)c1ccc2nc(NC(=O)C3COc4ccccc4O3)sc2c1 (configuration not stated) | inconclusive: 89.1 µM [inhibitor, single point] | – |
| COc1cc(OC)c(NC(=O)c2ccc3c(c2)N(Cc2ccc(C)cc2)CCS3)cc1Cl | inactive | – |
| CO[C@H]1C([C@@]2(C)O[C@@H]2CC=C(C)C)[C@]2(CC[C@H]1OC(=O)/C=C/C=C/C=C/C=C/C(=O)O)CO2 (some centres not stated) | inconclusive: 39.8 µM [inhibitor, partial curve, poor fit] | – |
| COc1cc(/C=N/Nc2nn3cnnc3c3ccccc23)cc(OC)c1OC | inconclusive: 44.7 µM [inhibitor, partial curve] | – |
| Cc1nc(S/C(=C/c2ccc(-c3cc(Cl)ccc3C)o2)C(=O)O)n[nH]1 | inconclusive: 39.8 µM [inhibitor, partial curve, poor fit] | – |
| Cc1ccc(S(=O)(=O)c2nnn3c2nc(N2CCOCC2)c2sccc23)cc1C | inactive | – |
| C[C@@H]1C(c2ccc(F)cc2)=NN(c2ccccc2)[C@H]1C(=O)N1CCOC1=O | inconclusive: 28.2 µM [inhibitor, partial curve, poor fit] | – |
| C=C(C)[C@H]1CC=C(CO)CC1 | inactive | – |
| O=C(CSc1nc2ccccc2c(=O)[nH]1)Nc1nc(-c2ccc(Br)cc2)cs1 | active: 20 µM | – |
| Cc1c(Cc2ccccc2)c(=O)oc2c(C)c(OCC(=O)N[C@@H](Cc3ccccc3)C(=O)O)ccc12 | inactive | – |
| Oc1ccc(CCNc2c3ccccc3nc3ccccc23)cc1O | inconclusive: 89.1 µM [inhibitor, single point] | – |
| Cc1c(C(=O)O)sc2nc3n(c(=O)c12)CCC3 | inconclusive: 79.4 µM [inhibitor, partial curve] | – |
| O=[N+]([O-])c1cc2c(cc1CN1CCN(CCOCCO)CC1)OCO2 | inconclusive: 10 µM [inhibitor, full curve, poor fit] | – |
| COc1ccc(/C=C2\SC(=S)N(CCC(=O)N3CCCCC3CCO)C2=O)cc1 (configuration not stated) | inconclusive: 89.1 µM [inhibitor, single point] | – |
| O=C(O)c1c(Br)c(Br)c(Br)c(Br)c1C1c2ccc(O)cc2Oc2cc(O)ccc21 | active: 1.12 µM | – |
| CCCCCCCCCCCCCCCCOC[C@H](COP(=O)([O-])OCC[N+](C)(C)C)OC(=O)CCCCCCCC(=O)O | inconclusive: 37.7 µM [inhibitor, single point] | – |
| Cc1cc(C)c(NC(=O)Cn2nnc(S(=O)(=O)c3ccc(C)c(C)c3)c2N)c(C)c1 | inconclusive: 100 µM [inhibitor, single point] | – |
| NNC(=O)c1cc(O)c(O)c(O)c1 | active: 56.2 µM | – |
| CS(=O)(=O)NCCSCc1ccco1 | inconclusive: 89.1 µM [inhibitor, single point] | – |
| COc1cc(/C=C2/C(C)=C(C#N)c3nc(N)c(C#N)c(C)c32)ccc1OCC(=O)O | active: 89.1 µM | – |
